Among the data in US11618753B2 (priority 2018, dated 2023) are IC50 values, retold here.

SMILES strings stand for the structures.

The assay has as its system MLKL phosphorylation, HT29-L23 human colorectal adenocarcinoma cells. Briefly: cells. Conditions: read-out: pMLKL HCS Cell Assay (IC50, uM).
Usually IC50 stands for the concentration that inhibits the measured activity by half. As for `COc1ncc(-c2cc(CN3CCC(F)(F)CC3)c3c(N)ncnn23)cc1C(=O)N[C@@H]1CN(C(=O)CC(F)(F)F)C[C@@H]1F` [Example 1261, 5-{4-amino-5-[(4,4-difluoropiperidin-1-yl)methyl]pyrrolo[2,1-f][1,2,4]triazin-7-yl}-N-[(3R,4S)-4-fluoro-1-(3,3,3-trifluoropropanoyl)pyrrolidin-3-yl]-2-methoxypyridine-3-carboxamide], the IC50 was found to be 0.0028 µM.

For `Cc1cc(-c2cc(C(F)(F)F)c3c(N)ncnn23)cc(C(=O)N[C@@H]2CN(C(=O)CC(O)(C(F)(F)F)C(F)(F)F)C[C@@H]2F)c1Cl` [Example 702, 5-[4-amino-5-(trifluoromethyl)pyrrolo[2,1-f][1,2,4]triazin-7-yl]-2-chloro-N-[(3R,4S)-4-fluoro-1-[4,4,4-trifluoro-3-hydroxy-3-(trifluoromethyl)butanoyl]pyrrolidin-3-yl]-3-methylbenzamide], the IC50 was determined as 0.0051 µM. `Nc1ncnn2c(-c3cccc(C(=O)Nc4cnn(Cc5ccccc5)c4)c3)cc(C(F)(F)F)c12` [Example 76, 3-[4-amino-5-(trifluoromethyl)pyrrolo[2,1-f][1,2,4]triazin-7-yl]-N-(1-benzyl-1H-pyrazol-4-yl)benzamide]: the IC50 amounted to 0.0041 µM.

Consider `COc1ncc(-c2cc(C(F)(F)F)c3c(N)ncnn23)cc1C(=O)NCCC(O)c1ccc(F)cc1` (single isomer, unassigned) [Example 126, 5-[4-amino-5-(trifluoromethyl)pyrrolo[2,1-f][1,2,4]triazin-7-yl]-2-methoxy-N-[(2-phenyloxan-3-yl)methyl]pyridine-3-carboxamide], for which the IC50 was 0.016 µM. For `COc1ncc(-c2cc(C(F)(F)F)c3c(N)ncnn23)cc1C(=O)NC1CN(C(C)c2cc(F)nc(F)c2)C[C@@H]1F` (stereo partly drawn) [Example 1388, 5-[4-amino-5-(trifluoromethyl)-pyrrolo[2,1-f][1,2,4]triazin-7-yl]-N-[(3R,4S)-1-[1-(2,6-difluoropyridin-4-yl)ethyl]-4-fluoropyrrolidin-3-yl]-2-methoxypyridine-3-carbox-amide], the IC50 was 0.0049 µM. In the case of `COc1ncc(-c2cc(C(F)(F)F)c3c(N)ncnn23)cc1C(=O)N1CCCC(O)(C(O)c2ccc(F)cc2)C1` (stereo not drawn) [Example 1747, (5-(4-amino-5-(trifluoromethyl)pyrrolo[2,1-f][1,2,4]triazin-7-yl)-2-methoxypyridin-3-yl)(3-((4-fluorophenyl)(hydroxy)methyl)-3-hydroxypiperidin-1-yl)methanone], the IC50 was 0.274 µM.

On to `Cc1ccc(-c2cc(CN3CCC(F)(F)CC3)c3c(N)ncnn23)cc1C(=O)N[C@@H]1CN(C(=O)[C@H]2CC2(F)F)C[C@@H]1F` [Example 1573, 5-(4-amino-5-((4,4-difluoropiperidin-1-yl)methyl)pyrrolo[2,1-f][1,2,4]triazin-7-yl)-N-((3R,4S)-1-((R)-2,2-difluorocyclopropane-1-carbonyl)-4-fluoropyrrolidin-3-yl)-2-methylbenzamide], for which the IC50 was 0.0027 µM. For the compound `Cc1ncc(-c2cc(C(F)(F)F)c3c(N)ncnn23)cc1C(=O)N[C@@H]1CN(CC(O)C(F)(F)F)C[C@@H]1F` (stereo partly drawn) [Example 430, 5-[4-amino-5-(trifluoromethyl)pyrrolo [2,1-f][1,2,4]triazin-7-yl]-N-[(3R,4S)-4-fluoro-1-(3,3,3-trifluoro-2-hydroxypropyl)pyrrolidin-3-yl]-2-methylpyridine-3-carboxamide], the IC50 was determined as 0.022 µM.

Take `Cc1ccc(-c2cc(CN3CCC(C(F)(F)F)CC3)c3c(N)ncnn23)cc1C(=O)N[C@@H]1CN(C(=O)c2ccccc2F)C[C@@H]1F` [Example 1654, 5-(4-amino-5-{[4-(trifluoromethyl)piperidin-1-yl]methyl}pyrrolo[2,1-f][1,2,4]triazin-7-yl)-N-[(3R,4S)-4-fluoro-1-(2-fluorobenzoyl)pyrrolidin-3-yl]-2-methylbenzamide]: the IC50 is 0.00044 µM.
